# Data reported in patent US4220795A, “Cyclobutyl substituted derivatives of prostaglandin analogs” (Miles Laboratories, Inc., priority 1978, dated 1980).
# At least one read-out could not be matched to a standard name with certainty.
# Test system: gastric secretion
# Assay: Effects on Gastric Secretion in the Rat (Test B)
# Assay type: in vivo
# Conditions: pylorus ligated, s.c. 2 x 1.5 mg/kg, 4 hr
# Text: B. Evaluation of the Effects of Prostaglandin Analogs III on Gastric Secretion in the Rat
# A procedure based on that described by Lipmann (J. Pharm. Pharmacol., 21:335 [1968]) was used to assess the influence of test compounds on gastric secretion. Rats of one sex weighing 150 to 200 g were randomly divided into groups of six animals each and fasted for 48 hr previous to the experiments, water being available ad limitum. The animals were anesthetized with ether, the abdomen was opened through a midline incision and the pylorus was ligated. Test compounds were diluted from stock solution so as to administer a dose of 1.5 mg/kg in a volume equivalent to 1 ml/kg. Subcutaneous injections were applied immediately after surgery and again 2 hr later, so that a total dose of 3.0 mg/kg was administered. Dilutions were made with phosphate buffer (pH 7.38) as recommended by Lee et al. (Prostaglandins 3:29 [1973]), in order to insure adequate stability of drugs at the subcutaneous depot. Each compound was tested in one group of rats; an additional control group received only the vehicle.
# Four hr after pyloric ligation the animals were killed with ether, the cardias ligated and the stomachs removed. The volume of gastric secretion was measured and the contents centrifuged at 5000 rpm for 10 min. Total acid in the supernatant was titrated against a 0.1 N sodium hydroxide solution and the amount expressed in mEq.
# Volume and total acid values of the treated group were compared with those of the controls by the "T" test. Anti-secretory activity was scored according to the following scale: […]
row,Structure (SMILES),"Activity value, Test B: Inhibition of a Rodent Gastric Secretion (% decrease in acidity)"
1,"O=C1C[C@@H](O)[C@H](/C=C/[C@@H](O)C2CC(C3CCC3)C2)[C@H]1CCCCCCCO (stereo partly drawn) [TR-4880, 1,11α,15S-Trihydroxy-16,18-methano-19,20-ethanoprost-13E-en-9-one]",0 (<26)
2,"CC1([C@@H](O)/C=C/[C@H]2[C@H](O)CC(=O)[C@@H]2CCCCCCCO)CCC1 [TR-4674, 16,19-Cyclo-16-methyl-20-nor-1,11α,15S-trihydroxyprost-13E-en-9-one]","2 (26-50, significant)"
3,"CCCCC1([C@@H](O)/C=C/[C@H]2[C@H](O)CC(=O)[C@@H]2CCCCCCCO)CCC1 [TR-4646, 16,16-Propano-1,11α,15S-trihydroxyprost-13E-en-9-one]",0 (<26)
4,"CC1([C@H](O)/C=C/[C@H]2[C@H](O)CC(=O)[C@@H]2CCCCCCCO)CCC1 [TR-4673, 16,19-Cyclo-16-methyl-20-nor-1,11α,15R-trihydroxyprost-13E-en-9-one]",3 (51-75)
5,"O=C1C[C@@H](O)[C@H](/C=C/[C@@H](O)C2CC(CC3CCC3)C2)[C@H]1CCCCCCCO (stereo partly drawn) [TR-4833, 1,11α,15S-Trihydroxy-16,18-methano-20,20-propanoprost-13E-en-9-one]",0 (<26)
6,"CCC1CC([C@H](O)/C=C/[C@H]2[C@H](O)CC(=O)[C@@H]2CCCCCCCO)C1 (stereo partly drawn) [TR-4570, 16,18-Methano-1,11α,15S-trihydroxyprost-13E-en-9-one]",0 (<26)
7,"CCCCC1([C@H](O)/C=C/[C@H]2[C@H](O)CC(=O)[C@@H]2CCCCCCC(=O)OC)CCC1 [TR-4692, Methyl 11α,15R-dihydroxy-9-oxo-16,16-propanoprost-13E-en-1-oate]",4 (76-100)
8,"CCCCC1([C@H](O)/C=C/[C@H]2[C@H](O)CC(=O)[C@@H]2CCCCCCCO)CCC1 [TR-4645, 16,16-Propano-1,11α,15R-trihydroxyprost-13E-en-9-one]",4 (76-100)
9,"COC(=O)CCCCCC[C@H]1C(=O)C[C@@H](O)[C@@H]1/C=C/[C@H](O)C1CC(C2CCC2)C1 (stereo partly drawn) [TR-4882, Methyl 11α,15R-dihydroxy-16,18-methano-19,20-ethano-9-oxoprost-13E-en-1-oate]","1 (26-50, not significant)"
10,"O=C1C[C@@H](O)[C@H](/C=C/[C@H](O)C2CC(CC3CCC3)C2)[C@H]1CCCCCCCO (stereo partly drawn) [TR-4832, 1,11α,15R-Trihydroxy-16,18-methano-20,20-propanoprost-13E-en-9-one]","2 (26-50, significant)"
11,"CCC1CC([C@H](O)/C=C/[C@H]2[C@H](O)CC(=O)[C@@H]2CCCCCCO)C1 (relative stereo) [TR-4676, (±)16,18-Methano-1-nor-2,11α,15S-trihydroxyprost-13E-en-9-one]",0 (<26)
12,"COC(=O)CCCCCC[C@H]1C(=O)C[C@@H](O)[C@@H]1/C=C/[C@@H](O)C1CC(CC2CCC2)C1 (stereo partly drawn) [TR-4797, Methyl 11α,15S-dihydroxy-16,19-methano-20,20-propano-9-oxoprost-13E-en-1-oate]",0 (<26)
13,"CCC1CC([C@@H](O)/C=C/[C@H]2[C@H](O)CC(=O)[C@@H]2CCCCCCCO)C1 (stereo partly drawn) [TR-4569, 16,18-Methano-1,11α,15R-trihydroxyprost-13E-en-9-one]",4 (76-100)
14,"CCC1CC(C(O)/C=C/[C@H]2C=CC(=O)[C@@H]2CCCCCCC(=O)OC)C1 (some centres unmarked) [TR-4280, Methyl 15RS-hydroxy-16,18-methano-9-oxoprosta-10,13E-dien-1-oate]",0 (<26)
15,"COC(=O)CCCCCC[C@H]1C(=O)C=C[C@@H]1/C=C/[C@@H](O)C1(C)CCC1 [TR-4683, Methyl 16,19-cyclo-15R-hydroxy-16-methyl-20-nor-9-oxoprosta-10,13E-dien-1-oate]",0 (<26)
16,"COC(=O)CCCCCC[C@H]1C(=O)C[C@@H](O)[C@@H]1/C=C/[C@@H](O)C1CC(C2CCC2)C1 (stereo partly drawn) [TR-4887, Methyl 11α,15S-dihydroxy-16,18-methano-19,20-ethano-9-oxoprost-13E-en-1-oate]",0 (<26)
17,"CCC1CC(C)([C@H](O)/C=C/[C@H]2[C@H](O)CC(=O)[C@@H]2CCCCCCCO)C1 (stereo partly drawn) [TR-4688, 16,18-Methano-16-methyl-1,11α,15R-trihydroxyprost-13E-en-9-onc]",3 (51-75)
18,"CCC1CC([C@@H](O)/C=C/[C@H]2[C@H](O)CC(=O)[C@@H]2CCCCCCO)C1 (relative stereo) [TR-4675, (±)16,18-Methano-1-nor-2,11α,15R-trihydroxyprost-13E-en-9-one]","2 (26-50, significant)"
19,"CCC1CC(C)([C@@H](O)/C=C/[C@H]2[C@H](O)CC(=O)[C@@H]2CCCCCCCO)C1 (stereo partly drawn) [TR-4689, 16,18-Methano-16-methyl-1,11α,15S-trihydroxyprost-13E-en-9-one]","2 (26-50, significant)"
20,"COC(=O)CCCCCC[C@H]1C(=O)C[C@@H](O)[C@@H]1/C=C/[C@H](O)C1(C)CCC1 [TR-4691, Methyl 16,19-cyclo-11α,15S-dihydroxy-16-methyl-20-nor-9-oxoprost-13E-en-1-oate]","1 (26-50, not significant)"
21,"CCC1CC([C@H](O)/C=C/[C@H]2[C@H](O)CC(=O)[C@@H]2CCCCCCC(=O)OC)C1 (stereo partly drawn) [TR-4249, Methyl 11α,15S-dihydroxy-16,18-methano-9-oxoprost-13E-en-1-oate]",0 (<26)
22,"CCC1CC([C@@H](O)/C=C/[C@H]2C=CC(=O)[C@@H]2CCCCCCCOC(C)=O)C1 (stereo partly drawn) [TR-4568, 1-Acetoxy-15R-hydroxy-16,18-methanoprosta-10,13E-dien-9-one]",0 (<26)
23,"CCC1CC([C@H](O)/C=C/[C@H]2C=CC(=O)[C@@H]2CCCCCCCOC(C)=O)C1 (stereo partly drawn) [TR-4565, 1-Acetoxy-15S-hydroxy-16,18-methanoprosta-10,13E-dien-9-one]",0 (<26)
24,"CCC1CC(C)([C@H](O)/C=C/[C@H]2[C@H](O)CC(=O)[C@@H]2CCCCCCC(=O)OC)C1 (stereo partly drawn) [TR-4681, Methyl 11α,15R-dihydroxy-16,18-methano-16-methyl-9-oxoprost-13E-en-1-oate]",4 (76-100)
25,"CCCCC1([C@@H](O)/C=C/[C@H]2[C@H](O)CC(=O)[C@@H]2CCCCCCC(=O)OC)CCC1 [TR-4677, Methyl 11α,15S-dihydroxy-9-oxo-16-,16-propanoprost-13E-en-1-oate]",3 (51-75)
26,"COC(=O)CCCCCC[C@H]1C(=O)C[C@@H](O)[C@@H]1/C=C/[C@H](O)C1CC(CC2CCC2)C1 (stereo partly drawn) [TR-4796, Methyl 11α,15R-dihydroxy-16,18-methano-20,20-propano-9-oxoprost-13E-en-1-oate]","2 (26-50, significant)"
